{"source": "paper PMC4336329", "about": "(PLoS ONE, 2015)", "note": "About 2,200 (0.71%) of roughly 310,000 compounds showed an effect of 50% or more. Effects have a minus sign here. Some of the results follow. Where a SMILES comes first, the peptide text is derived from it. The star is where a group is joined. Boc = CC(C)(C)OC(=O)*; OBn = c1ccc(CO*)cc1", "data": [{"molecular_target": "human ether-à-go-go-related gene (hERG) potassium channel (human, UniProt Q12809)", "sequence (Q12809 whole entry, looked up)": "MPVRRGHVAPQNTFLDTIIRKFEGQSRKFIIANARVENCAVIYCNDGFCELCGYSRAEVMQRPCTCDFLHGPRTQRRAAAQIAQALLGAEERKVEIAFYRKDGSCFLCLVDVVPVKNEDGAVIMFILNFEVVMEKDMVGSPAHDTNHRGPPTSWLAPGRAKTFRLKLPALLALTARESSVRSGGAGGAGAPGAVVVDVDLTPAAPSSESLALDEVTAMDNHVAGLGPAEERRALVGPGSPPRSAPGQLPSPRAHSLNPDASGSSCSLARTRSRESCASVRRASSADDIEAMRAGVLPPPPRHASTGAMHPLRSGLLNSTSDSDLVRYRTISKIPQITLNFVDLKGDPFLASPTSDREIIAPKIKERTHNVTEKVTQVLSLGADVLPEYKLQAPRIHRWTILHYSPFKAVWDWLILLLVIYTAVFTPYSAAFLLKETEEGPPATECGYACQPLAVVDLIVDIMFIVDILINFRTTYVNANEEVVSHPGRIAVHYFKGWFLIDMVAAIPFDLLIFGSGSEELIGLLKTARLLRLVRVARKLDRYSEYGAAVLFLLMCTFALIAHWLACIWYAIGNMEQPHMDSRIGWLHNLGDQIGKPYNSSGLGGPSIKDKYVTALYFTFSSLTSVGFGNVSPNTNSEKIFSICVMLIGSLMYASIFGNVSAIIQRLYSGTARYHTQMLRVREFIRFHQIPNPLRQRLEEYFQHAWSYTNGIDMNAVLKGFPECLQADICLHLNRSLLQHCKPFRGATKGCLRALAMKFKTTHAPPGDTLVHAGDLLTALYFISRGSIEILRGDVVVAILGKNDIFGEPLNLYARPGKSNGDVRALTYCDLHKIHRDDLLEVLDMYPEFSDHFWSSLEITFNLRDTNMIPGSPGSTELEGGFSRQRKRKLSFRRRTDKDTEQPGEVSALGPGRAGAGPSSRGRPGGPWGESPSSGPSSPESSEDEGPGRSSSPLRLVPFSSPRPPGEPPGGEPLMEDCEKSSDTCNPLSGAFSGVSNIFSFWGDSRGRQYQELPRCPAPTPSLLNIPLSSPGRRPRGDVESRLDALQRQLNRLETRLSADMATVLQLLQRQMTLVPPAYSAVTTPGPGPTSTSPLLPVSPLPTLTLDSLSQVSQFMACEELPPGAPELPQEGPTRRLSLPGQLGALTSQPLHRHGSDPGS", "experiment": "primary screen, population patch clamp on CHO cells stably expressing hERG", "protocol": "Briefly, Chinese hamster ovary (CHO) cells stably expressing the hERG channel were dislodged from tissue culture flasks and dispensed into PPC plates. […] During the recording, background leak currents were estimated by a 100 ms step to -80 mV from an initial holding potential of -70 mV and subtracted from the subsequent current measurement. The campaign was conducted in two phases using slight differences in recording protocol. In the first phase, the initial voltage pulse used a 100 ms step to -30 mV from a holding potential of -70 mV, a 2 s conditioning step to +25 mV, and a 2 s test step to -30 mV. During the second phase of the screen, the potential during the conditioning step was raised to +45 mV. In both phases of the campaign, a secondary voltage pulse was applied using the same parameters as the second phase initial pulse. The initial and secondary pulses were applied in the absence of compound, and upon application of 1 μM and 10 μM test concentrations. Small molecule effects on hERG current density were quantified by […].", "units": {"hERG current change (%, negative = inhibition) at 1uM": "%"}, "values": [{"compound": "COCCn1c(=O)c2c(nc3n2CC(C)CN3CCc2ccccc2)n(C)c1=O", "note": "(centres unmarked)", "hERG current change (%, negative = inhibition) at 1uM": -9.39}, {"compound": "O=C(Cc1c(O)c2ccccc2[nH]c1=O)N(Cc1ccccc1)Cc1ccccc1", "hERG current change (%, negative = inhibition) at 1uM": 2.34}, {"compound": "O=C(N=Nc1c(O)[nH]c2ccccc12)c1cc(-c2cccs2)[nH]n1", "hERG current change (%, negative = inhibition) at 1uM": 9.76}, {"compound": "COc1cccc(CNC(=O)c2ccc(Cl)c(NC3=NC4CS(=O)(=O)CC4S3)c2)c1", "note": "(centres unmarked)", "hERG current change (%, negative = inhibition) at 1uM": 3.44}, {"compound": "Cc1ccnc(N2CCCC(C(=O)Nc3nnc(C)s3)C2)n1", "note": "(centres unmarked)", "hERG current change (%, negative = inhibition) at 1uM": 9.23}, {"compound": "COc1ccc(CN(C)CC(=O)NCC(=O)Nc2c(C)cccc2C)cc1", "hERG current change (%, negative = inhibition) at 1uM": -3.33}, {"compound": "CCOc1cc2c(C#N)c(N3CCCCC3)nc(N)c2c(N)n1", "hERG current change (%, negative = inhibition) at 1uM": 2.45}, {"compound": "CCc1nn(C)c2c(=O)c(=O)c2n(C)[nH]1", "hERG current change (%, negative = inhibition) at 1uM": 10.7}, {"compound": "Cc1nnc2sc(SCc3ccc(Br)cc3)nn2c1=O", "hERG current change (%, negative = inhibition) at 1uM": 12.6}, {"compound": "COc1ccccc1NC(=O)Cc1nn(C)c(=O)c2ccccc12", "hERG current change (%, negative = inhibition) at 1uM": 11.6}, {"compound": "O=C(CN1C(=O)NC2(CCCCC2)C1=O)Nc1ccc2[nH]c(=O)[nH]c2c1", "hERG current change (%, negative = inhibition) at 1uM": 13.5}, {"compound": "COc1ccc(Br)cc1CN(C)CC(=O)Nc1c(Cl)ccc(C)c1Cl", "hERG current change (%, negative = inhibition) at 1uM": 8.74}, {"compound": "Cn1cnnc1SCC(=O)c1ccc(OC(F)F)cc1", "hERG current change (%, negative = inhibition) at 1uM": -14.5}, {"compound": "CN1CCCC(CC2c3ccccc3Sc3ccccc32)C1.Cl.O", "note": "(centres unmarked)", "hERG current change (%, negative = inhibition) at 1uM": -7.15}, {"compound": "Cn1c(=O)n(C)c2cc(N3CCOCC3)c(NC(=O)c3cccc(Cl)c3)cc21", "hERG current change (%, negative = inhibition) at 1uM": 6.14}, {"compound": "Cc1cc(NC(=O)c2sccc2C)n(-c2cccc(Cl)c2)n1", "hERG current change (%, negative = inhibition) at 1uM": 7.25}, {"compound": "CCn1cc(/C=N/NC(=O)c2ccc3c(c2)OCO3)cn1", "hERG current change (%, negative = inhibition) at 1uM": -2.06}, {"compound": "Fc1ccc(CCNC(=S)Nc2ccc(F)c(Cl)c2)cc1", "hERG current change (%, negative = inhibition) at 1uM": 14.9}, {"compound": "C/C(CC1CC(COCC(C)C)OC1=O)=N\\NC(N)=S", "note": "(centres unmarked)", "hERG current change (%, negative = inhibition) at 1uM": 10.2}, {"compound": "CCOC(=O)c1cccc(NC(=O)CCS(=O)(=O)c2cccc3nsnc23)c1", "hERG current change (%, negative = inhibition) at 1uM": 6.07}, {"compound": "CC(=O)NC1C(=O)N(CCN2CCOCC2)c2ccc(C)cc21", "note": "(centres unmarked)", "hERG current change (%, negative = inhibition) at 1uM": 16}, {"compound": "CN1C(=O)C2(NC(=O)c3ccccc3N2C)c2ccccc21", "note": "(centres unmarked)", "hERG current change (%, negative = inhibition) at 1uM": 4.54}, {"compound": "COCCCN1C(=O)C(=O)/C(=C(/O)c2ccc(S(=O)(=O)N3CCOCC3)cc2)C1c1ccc(C)cc1", "note": "(centres unmarked)", "hERG current change (%, negative = inhibition) at 1uM": 12.7}, {"compound": "O=C(O)CCC(=O)Nc1ccc(Br)cc1C(=O)c1ccccc1", "hERG current change (%, negative = inhibition) at 1uM": 12.4}, {"compound": "C/C(=N\\NC(=O)Cc1ccc(Br)cc1)c1cccnc1", "hERG current change (%, negative = inhibition) at 1uM": 12.6}, {"compound": "COCCCNC(=O)C1CCN(C(=O)c2oc3cc4sc(N(C)C)nc4cc3c2C)CC1", "hERG current change (%, negative = inhibition) at 1uM": -7.8}, {"compound": "CN1C(=O)OC2(C)CCc3ccccc3C12C", "note": "(centres unmarked)", "hERG current change (%, negative = inhibition) at 1uM": 6.53}, {"compound": "CC(C)(C)OC(=O)NCC(=O)NCC(=O)OCc1ccccc1", "note": "(Boc-Gly-Gly-OBn)", "hERG current change (%, negative = inhibition) at 1uM": 0.569}, {"compound": "COc1ccc(Cc2noc(CN(C)CC3(N4CCOCC4)CCCCC3)n2)cc1OC", "hERG current change (%, negative = inhibition) at 1uM": 4.01}, {"compound": "CC1=C(C(=O)N2CCCC(N3CCN(c4cccc(C(F)(F)F)c4)CC3)C2)OCCO1", "note": "(centres unmarked)", "hERG current change (%, negative = inhibition) at 1uM": -7.71}, {"compound": "COc1ccc(C(=O)Nc2ccccc2N2CCOCC2)cc1S(=O)(=O)N1CCOCC1", "hERG current change (%, negative = inhibition) at 1uM": 0.225}, {"compound": "Cc1ccc(S(=O)(=O)N(C)C)cc1NC(=O)CSc1ncn[nH]1", "hERG current change (%, negative = inhibition) at 1uM": 6.23}, {"compound": "O=[N+]([O-])c1ccccc1S(=O)(=O)Nc1ccc2c(c1)OCCO2", "hERG current change (%, negative = inhibition) at 1uM": 6.28}, {"compound": "CCOc1ccc(NC(=O)C/C(C)=N/NC(=O)c2cnccn2)cc1", "hERG current change (%, negative = inhibition) at 1uM": 0.75}, {"compound": "Cc1nnsc1C(=O)Nc1cccc(Cl)c1", "hERG current change (%, negative = inhibition) at 1uM": 12.5}, {"compound": "COc1ccc2c(c1)CCC/C2=N/OC(=O)c1ccccc1OC", "hERG current change (%, negative = inhibition) at 1uM": 15.4}, {"compound": "COc1ccc(OC)c(CCNC(=O)Cn2cccc2C(=O)c2ccccc2C)c1", "hERG current change (%, negative = inhibition) at 1uM": 3.24}, {"compound": "Cc1cc2nn(-c3cccc4ccccc34)nc2cc1NC(=O)c1cccs1", "hERG current change (%, negative = inhibition) at 1uM": 6.09}, {"compound": "Cc1ccc(NC(=S)NC(=O)c2ccc(F)cc2)cc1S(=O)(=O)Nc1cccc(Cl)c1", "hERG current change (%, negative = inhibition) at 1uM": 9.91}, {"compound": "CCC(NC(=O)Cc1cccs1)c1ccccc1", "note": "(centres unmarked)", "hERG current change (%, negative = inhibition) at 1uM": 16.5}, {"compound": "Cc1nnc(NC(=O)/C=C/c2ccco2)s1", "hERG current change (%, negative = inhibition) at 1uM": 18.9}, {"compound": "Cc1nc(Nc2ccccc2Br)c2nnn(Cc3ccccc3)c2n1", "hERG current change (%, negative = inhibition) at 1uM": 11.4}, {"compound": "Cc1ccc(S(=O)(=O)Nc2nc3n(n2)C(c2ccc(Cl)cc2)CC(=O)N3)cc1", "note": "(centres unmarked)", "hERG current change (%, negative = inhibition) at 1uM": 8.87}, {"compound": "CCN(CC(=O)Nc1ccc(NC(C)=O)cc1)C(=O)CSc1nnc(-c2ccco2)n1CC", "hERG current change (%, negative = inhibition) at 1uM": 16.2}]}]}
